About 9,900 (2.8%) of roughly 350,000 compounds were called active. The shares of active, inactive and inconclusive entries below differ from those in the screen. Calls follow the shape of the dose curve; as a rule, active = well fitted activation curve with a large enough effect; inconclusive = small, poorly fitted or top-dose-only effect; inactive = no such curve, though single readings can be large or run the other way. No potency is given beside an inconclusive call; the fits are too rough.
test: A quantitative high throughput screen for small molecules that induce DNA re-replication in MCF 10a normal breast cells.; also: nearly all actives have a fitted effect of over 50% in size; conditions: MCF 10A DNA re-replication, Hoechst nuclear intensity, 48 h; series mostly up to 46.1 µM
Potency is read from the fitted curve at half-maximal effect; tags tell the direction and shape of the fitted curve.

| SMILES | Potency |
| --- | --- |
| COc1cc(-c2nc(C(=O)NCC3CCCO3)cc3c2[nH]c2ccccc23)cc(OC)c1OC (configuration not stated) | inconclusive [activator, single point] |
| Cn1c(O)c(N=NC(=O)c2ccccc2O)c2ccccc21 | inconclusive [activator, single point] |
| Cc1cc(NC(=O)Nc2cccc(Cl)c2)n(-c2ccccn2)n1 | inconclusive [activator, single point] |
| COc1cccc(C(=O)NC(C)c2ccc(Br)cc2)c1 (configuration not stated) | inactive |
| Cc1c(/C=N/NC(N)=O)c2ccccn2c1C(=O)c1ccc(F)cc1 | inactive |
| Cc1cc(C)c2c(c1)-c1c(ssc1=S)C(C)(C)N2C(=O)CSc1nncn1C | inconclusive [activator, single point] |
| O=C(N/N=C/c1ccccn1)c1ccc(NC(=O)c2ccc(F)cc2)cc1 | inactive |
| Cc1ccc(C)c(N2C(=O)CC(Cc3ccc(Br)cc3)C2=O)c1 (configuration not stated) | inactive |
| NC(=S)N/N=C/C=C/c1ccccc1 | inconclusive [activator, partial curve, poor fit] |
| O=C(C=Cc1ccc2c(c1)OCO2)c1ccccc1 | active: 18.4 µM |
| CC(C)(C)c1ccc(-c2nnc(SCC(=O)c3ccc4c(c3)OCCO4)o2)cc1 | inconclusive [activator, partial curve] |
| CCOc1cc(-c2nc3cc(C)ccn3c2NCC2CCCO2)ccc1O (configuration not stated) | inconclusive [activator, partial curve, poor fit] |
| O=C(c1cnn2c(C(F)F)cc(-c3ccccc3)nc12)N1CCN(Cc2ccc3c(c2)OCO3)CC1 | inconclusive [activator, single point] |
| Cc1cc(C)c2cc(C(=O)N3CCC(C(=O)c4ccc(F)cc4)CC3)[nH]c2c1 | inconclusive [activator, single point] |
| COc1ccccc1C(=O)COC(=O)c1cccc(S(=O)(=O)N2CCCC2)c1 | inconclusive [activator, single point] |
| CCOC(=O)c1c(NC(=O)c2cccnc2)sc(C)c1C | inactive |
| COCOc1cc(O)c(C(=O)/C=C/c2ccc(OCOC)c(OCOC)c2)c(OCOC)c1 | inconclusive [activator, partial curve, poor fit] |
| O=C1c2cccc(OCC(=O)N3CCCc4ccccc43)c2CCN1Cc1ccc(F)cc1 | active: 14.6 µM |
| O=C(CNc1cc(S(=O)(=O)N2CCOCC2)ccc1NCC1CCCO1)Nc1ccc(C(F)(F)F)cc1 (configuration not stated) | inactive |
| COc1ccc(OCC(=O)Nc2cccc(-c3nc4ccccc4o3)c2)cc1 | inactive |
| CCC(Sc1ncccc1C(=O)Oc1cccc([N+](=O)[O-])c1)C(=O)Nc1ccccc1OC (configuration not stated) | inconclusive [activator, single point] |
| CCN(CC)CCNC(=O)c1cc2c(s1)-c1ccccc1SC2 | inconclusive [activator, single point] |
| CCCc1ccc2oc(C(=O)N3CCC(N4CCCC(O)C4)CC3)c(C)c2c1 (configuration not stated) | inconclusive [activator, partial curve, poor fit] |
| COc1cccc(-n2nc(C(C)=O)c(=O)[nH]c2=O)c1 | inconclusive [activator, full curve, poor fit] |

| SMILES | Potency |
| --- | --- |
| COc1ccc(CN2CCC(N3CCC(C(=O)N4CCOCC4)CC3)CC2)c(F)c1 | inactive |
| CCCn1c(SCC(=O)Nc2ccccc2C(=O)OC)nc2c1c(=O)n(C)c(=O)n2C | inactive |
| CCOC(=O)/C=C/C(=O)OCC(=O)Nc1ccc(Cl)cn1 | active: 20.6 µM |
| Clc1ccc2c(c1)-c1[nH]ncc1CS2 | inconclusive [activator, partial curve, poor fit] |
| CCOC(=O)c1cn(CC(=O)Nc2ccccc2C(=O)OCC)nn1 | inactive |
| COc1ccc(OCC(=O)Nc2ccc3c(c2)nc(CCn2ccccc2=O)n3C)cc1 | inactive |
| CS(=O)(=O)N(CC(=O)NCc1ccc(Cl)cc1)C1CCCCC1 | inactive |
| CCn1cc(C(=O)O)c(=O)c2cc(F)c(N3CCN(C(=S)Nc4ccccc4OC)CC3)cc21 | inactive |
| O=C(Nc1ccccc1)C(c1ccccc1)C1CCCC1 (configuration not stated) | inactive |
| COc1ccc(NC(=O)c2oc3ccccc3c2NC(=O)c2ccc3c(c2)OCO3)cc1 | inactive |
| CCCn1nnc(NC(=O)C(C)Oc2ccc(Cl)cc2Cl)n1 (configuration not stated) | inactive |
| CC1(C)O[C@@H]2C[C@H]3[C@@H]4CCC5=CC(=O)CC[C@]5(C)[C@@]4(F)[C@@H](O)C[C@]3(C)[C@]2(C(=O)CCl)O1 | inactive |
| COc1ccc(N/C=C(\C2OC(=O)c3ccccc32)[N+](=O)[O-])cc1 (configuration not stated) | inactive |
| c1ccc(-c2ccccc2OCCCN2CCCCCC2)cc1 | inconclusive [activator, single point] |
| Cc1ccc(-n2[nH]c(C)c(/C=N/NC(=O)c3ccc(O)cc3O)c2=O)cc1 | inactive |
| Oc1ccccc1C=NN=Cc1ccccc1Cl | inactive |
| CCCCn1c(=O)[nH]c(=O)c2c1nc(Cn1ncc(Cl)c(Cl)c1=O)n2CCC | inconclusive [activator, single point] |
| COc1ccc(OC)c(N(C(=O)c2snc(C(N)=O)c2N)C(C(=O)NCC2CCCO2)c2ccc3ncccc3c2)c1 (configuration not stated) | inconclusive [activator, single point] |
| O=C(Nc1ccc(NC(=O)c2ccco2)c(Cl)c1)c1ccc2c(c1)OCCO2 | inconclusive [activator, single point] |
| COc1ccc(CCNS(=O)(=O)c2ccc(N3CCCC3=O)cc2)cc1 | inconclusive [activator, single point] |
| COc1ccccc1/C=C/C=C(\C#N)C(=O)NC(C)c1ccccc1 (configuration not stated) | inconclusive [activator, single point] |
| COc1ccc(OCCN2CCN(S(=O)(=O)c3ccccc3C(F)(F)F)CC2)cc1 | inactive |
| Cc1csc(N(C(=O)c2ccccc2F)c2ccccc2)n1 | inconclusive [activator, partial curve, poor fit] |

Source: PubChem BioAssay AID624296 (National Center for Advancing Translational Sciences (NCATS), 2012)
